PubChem BioAssay AID1963576 (National Center for Advancing Translational Sciences (NCATS), 2024)
The whole screen tested about 46,000 compounds, of which about 60 (0.1%) were called active. Inconclusive results (about 3%) are left out. The call rests on the fitted dose curve; in most records, active means well fitted inhibition curve with a large enough effect; inconclusive means small, poorly fitted or top-dose-only effect; inactive means no such curve, though single readings can be large or run the other way. The list shows a part of the results.

Experiment: Primary qHTS assay for Inhibitors of ovarian cancer metastasis using an organotypic tumor microenvironment (TME) model. Further: nearly all actives have a fitted effect of over 65% in size.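 On activity change, negative = inhibition: plate controls were DMSO wells for no effect and tomatine positive control wells for full effect.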
Conditions: SKOV3ip1-GFP adhesion/invasion on 3D omental model, fluorescence; series mostly up to 45.8 µM; activity change, negative = inhibition: at the top concentration
Summary of the method: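 Adhesion/invasion was scored as fixed GFP-labeled SKOV3ip1 cell counts (488/509 nm), normalized to DMSO and tomatine controls. Cancer cells in serum-free medium, with four compound doses (0.36-46 umol/L), sat 2 hr at RT then 16 hr at 37 C on a 48 hr fibroblast/mesothelial/ECM culture.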

Activity change, negative = inhibition, inactive:
CCC=CC[C@H]1C(=O)CC[C@@H]1CC(=O)OC 0.598%
Cc1ccc2c(CC(=O)Nc3c(C(=O)c4ccc(F)cc4)oc4ccccc34)coc2c1 2.93%
O=C(CCSCc1ccc(Cl)cc1)N1CCN(c2ccccc2F)CC1 -3.62%
COc1ccc(CCNC(=O)CS(=O)Cc2nc(-c3ccc(C)cc3)oc2C)cc1OC (stereo not given) -4.76%
COc1ccc(N2CCN(C(=O)c3nn(C)c4c3CS(=O)(=O)c3ccccc3-4)CC2)cc1 -6.61%
COc1ccc(-c2nc3c(c(SCc4cc(C)ccc4C)n2)Cc2c(CO)cnc(C)c2O3)cc1 3.46%
CC(NC(=O)C1CCN(C(=O)N2CCOc3ccc(Cl)cc32)CC1)c1ccccc1 (stereo not given) 9.57%
CCC(=O)OCc1cnc(C)c2oc(=O)c(C(=O)Nc3ccc(CC)cc3)cc12 7.81%
CCCN(CCC)CCNC(=O)Cn1ncc2c([nH]c3ccc(C)cc32)c1=O -0.319%
CCOc1ccc2oc(=O)cc(CN3CCN(C(=O)c4cccc(F)c4)CC3)c2c1 19.9%
COc1ccccc1Nc1nn2c(=O)c3ccc(C(=O)Nc4ccc(F)cc4)cc3nc2s1 6.93%
CCc1cccc(-n2c(=O)c3cccnc3n2CC(=O)NCc2ccccc2Cl)c1 9.27%
CCOC(=O)c1[nH]c(C)c(CCC(=O)NCc2ccc(C)cc2)c1C 16.8%
CCOC(=O)c1ccc(NC(=O)CCc2c(C)n(CC)c3cc(-c4ccccc4OC)nn3c2=O)cc1 -17.4%
CCOCCCNC(=O)c1cc2c(=O)n3ccccc3nc2s1 -2.19%
COc1ccc(N2CCN(C(=O)c3ccc(NC(=O)c4nsc5ccccc45)cc3)CC2)cc1 -1.97%
CC(C)(C)c1ccc(C(=O)Nc2cc(-c3ccccc3)nn2-c2ccccc2)cc1 0.637%
Cc1ccc(CNC(=O)CCn2ccc3cc(S(=O)(=O)N4CCCC4)ccc32)cc1 8.25%
O=C(CN1CCN(c2ccc(Cl)cc2)CC1)Nc1ccc(Cl)c(C(F)(F)F)c1 -1.46%
CC1CCN(C(=O)CSc2nc3c([nH]c4ccccc43)c(=O)n2-c2ccccc2)CC1 -2.21%
Cc1ccc(CSc2oc(-c3ccco3)nc2S(=O)(=O)c2ccc(Br)cc2)cc1 -3.71%
Cc1ccc(CNc2nc3c(S(=O)(=O)c4ccc(C)c(C)c4)nnn3c3ccc(Cl)cc23)cc1 5.39%
COc1ccccc1NC(=O)CSc1nnc(-c2nonc2NC(C)=O)n1-c1ccccc1 11.8%
CCc1ccc(S(=O)(=O)N2CCN(c3ccc(Cl)c(Cl)c3)CC2)cc1 -6.11%
CCOC(=O)c1ccccc1NC(=O)c1nn(-c2ccc(C)cc2)c(=O)n(C)c1=O 6.48%
Cc1cccc(NC(=O)c2oc3ccc(S(=O)(=O)N(C)C4CCCCC4)cc3c2C)c1C 1.64%
CCCCN(Cc1ccco1)C(=O)c1cc2c(s1)-c1c(C)cccc1OC2 -20.7%
CCOc1cccc(C(=O)Nc2ccc(-c3nc4cc(C)cc(C)c4o3)cc2)c1 -3.39%
CCc1ccccc1NC(=O)Cn1nnc(C(=O)Nc2ccc(OC)c(OC)c2)c1N 6.11%
Cc1ccc(C(C)C)c(OCCCn2c(=O)oc3ccc(C)cc32)c1 -7.33%
Nc1nc(N)c2nc(CNc3ccc(C(=O)NC(CCC(=O)O)C(=O)O)cc3)cnc2n1 (stereo not given) -12.4%
CC(C)c1ccc(NC(=O)c2cnn3c(C(F)F)cc(-c4ccccc4)nc23)cc1 0.353%
Cc1cc(C)c(S(=O)(=O)N2CCC(N3CCN(Cc4ccc(F)cc4)C(=O)C3=O)CC2)c(C)c1 8.98%
COC(=O)Cn1ccc2cc(S(=O)(=O)N3CCCCC3)ccc21 -1.06%
Cc1ccccc1NC(=O)c1ccc(F)c(S(=O)(=O)N2CCc3ccccc3C2)c1 3.61%
Cc1cccc(OCCOCCn2c(-c3ccc(Cl)cc3)nc3ccccc3c2=O)c1C -3.42%
COc1ccc(-c2cc(-c3ccc4c(c3)NC(=O)CO4)nc3c2COc2ccc(C)cc2-3)cc1 8.42%
CCc1ccccc1NC(=O)c1cnn(-c2ccc(F)cc2)c1C1CCNCC1 1.55%
CCOCCCNC(=O)Cn1cc2c(n1)-c1c(oc(C(=O)N3CCCC3)c1C)CC2 -19.8%
COc1c(Cl)cc(Cl)cc1/C=C(\C#N)c1nc(-c2ccc(Cl)cc2)cs1 0.757%
O=C(O)COc1ccccc1C1Nc2ccccc2-c2nnc(SCc3ccc(Cl)cc3)nc2O1 (stereo not given) -9.64%
O=c1cc(-c2cccc3c2Sc2ccccc2S3)oc(N2CCOCC2)c1 -13.4%
Cc1ccc(C)c(N2CCN(C(=O)C3CCC(CNS(=O)(=O)c4ccc(Br)s4)CC3)CC2)c1 (stereo not given) -4.13%
CC(C)(C)C(=O)Nc1ccc2nc(SCCOc3ccccc3Cl)sc2c1 -5.21%
Oc1cccc(Nc2cc(-c3ccccc3)ncn2)c1 3.43%
CCOc1ccccc1C(=O)Nc1cc(-c2nc3cccnc3s2)ccc1C 0.439%
COc1ccc(Nc2oc(-c3ccc(COc4ccccc4)o3)nc2C#N)cc1 -3.22%
COc1ccc(-n2c(SCc3nc(-c4ccc(Cl)cc4)no3)nnc2-c2ccncc2)cc1 -26.2%
CCOC(=O)N1CCC(NC(=O)c2cnn(-c3ccc(C)cc3)c2C2CCN(C(=O)OC(C)(C)C)CC2)CC1 3.89%
N#Cc1ccc(NC(=O)c2ccc3c(c2)nnn3C2CCCC2)cc1 51.6%
O=C(Nc1cccc(O)c1)c1cc(-c2ccccc2F)no1 -0.164%
CCc1ccc(NC(=O)Cn2nnc(C(=O)Nc3ccc(F)cc3)c2N)cc1 -7.26%
Cc1ccc(C)c(CSc2cn(CCNC(=O)c3cccs3)c3ccccc23)c1 1.53%
Cc1ccc(CSc2nc3cc(C(=O)NC4CCCC4)ccc3c(=O)n2Cc2ccccc2)cc1 3.8%
Cc1ccccc1NC(=O)Cn1nnc(C(=O)NCc2cccs2)c1N -0.395%
COc1cc(NC(=O)c2cc(S(=O)(=O)N3CCC(C)CC3)cn2C)cc(OC)c1OC 7.5%
CCOC(=O)C1CCCN(C(=O)Cn2ncc3c4ccccc4n(C)c3c2=O)C1 (stereo not given) -1.04%
O=C(NCc1cccc(Cl)c1)c1ccc2c(Cl)c3c(nc2c1)CCCC3 -1.54%
COc1ccc(CCN2C(=O)N(c3ccc(C)cc3)C(=O)C2CC(=O)Nc2ccc(OC)cc2)cc1 (stereo not given) 1.36%
COc1ccc(NC(=O)CSc2nc3nc(C)cc(C)n3n2)cc1OC -0.713%
CCc1ccc(S(=O)(=O)Nc2cccc(-c3ccc(OC)nn3)c2)s1 9.11%
Cc1cccc2c(=O)cc(CSc3ccccc3NC(=O)c3cccc(Br)c3)[nH]c12 -5.17%
CCC1CCCCN1CCCNC(=O)c1c(C)oc2ncn(CC(C)C)c(=O)c12 (stereo not given) -6.07%
COc1cccc(NC(=O)c2sc3nc(C)c(C(=O)Nc4ccc(C)cc4C)c(-c4ccc(C)o4)c3c2N)c1 -22.2%
CC(C)c1ccc2oc(-c3cc(NC(=O)c4cccnc4)ccc3Cl)nc2c1 -9.29%
COc1cccc2c1cc1c(=O)n(CC(=O)NCc3ccc(N(C)C)cc3)nc(C)n12 -1.13%
CCOc1ccccc1NC(=O)NCc1noc2ccc(C)cc12 -14.2%
CN(C(=O)CSc1nc2ccc(NC(=O)CCc3ccccc3)cc2s1)c1ccccc1 -27.2%
CCOc1ccc(-c2cc(C(=O)N3CCN(c4cccc(C)c4)C(C)C3)c3ccccc3n2)cc1 (stereo not given) -27.9%
Cc1ccc(C)c(N2CCN(C(=O)CCCCCn3c(=O)[nH]c4ccccc4c3=O)CC2)c1 -6.65%
Cc1ccc(C)c(Cn2c(SCC(=O)N(C)Cc3ccccc3)nc3ccccc32)c1 6.09%
Cc1ccccc1OCC(=O)Nc1ccc2nc(SCCOc3ccccc3)sc2c1 0.842%
O=C(CSc1nc2ccccc2nc1Cc1ccc(Cl)cc1)N1CCN(c2ccccc2F)CC1 9.1%

outcome, inactive:
NC(=O)c1cc(S(=O)(=O)NCc2ccc(Br)cc2)cs1
O=C(/C=C\c1ccc2c(c1)OCO2)NC1CC(=O)N(c2ccc(F)cc2)C1 (stereo not given)
Cc1ccc(C)c(N2CCN(C(=O)c3cc4cc5ccc(C)cc5nc4s3)CC2)c1
CC1CCN(S(=O)(=O)c2cc(C(=O)NCCc3ccccc3)n(C)c2)CC1
CCc1ccc(NC(=O)Cn2c(=O)n(Cc3nc(C)no3)c(=O)c3cc4c(cc32)OCO4)cc1
CCOc1ccc(-n2c(=O)c3c4c(sc3n(Cc3cc(=O)n5cc(Cl)ccc5n3)c2=O)CCC4)cc1
Cc1c(NC(=O)C(F)(F)F)ccc2nc3c(=O)n(C)c(=O)n(C)c3nc12
COc1ccc(-n2ncc(C(=O)NCCCN3CCCCC3)c2C2CCN(C(=O)OC(C)(C)C)CC2)cc1
COc1cccc(NC(=O)Cn2c(=O)n(CCCCC(=O)NCc3ccc4c(c3)OCO4)c(=O)c3ccccc32)c1
CCOc1ccc(-c2cc(CCCC(=O)NCCc3ccc(OC)c(OC)c3)no2)cc1
CCC(Sc1ncnc2sc3c(c12)CCCC3)C(=O)OCC(C)C (stereo not given)
CCCS(=O)(=O)N1CC(=O)N(c2cc(C)cc(C)c2)C(C)(C(=O)NC2CCCCCC2)C1 (stereo not given)
CC(CNC(=O)c1csc2c1CCCCC2)c1ccccc1 (stereo not given)
CCc1ccc(NS(=O)(=O)c2ccc(NC(=O)N3CCCC3)cc2)cc1
Cc1ccc(NC(=O)CCc2c(C)nc3ncnn3c2C)cc1Cl
Cc1cccc(NC(=O)CN2C(=O)CC(c3ccccc3)Sc3ccccc32)c1 (stereo not given)
O=C(Nc1cccc(F)c1)C1CCN(S(=O)(=O)c2ccc3[nH]c4c(c3c2)CCCCC4)CC1
O=C(CSc1ncc(CO)n1Cc1ccc(F)cc1)NCc1ccco1
O=c1n(Cc2ccc(Cl)cc2)nc2n1-c1ccccc1OC2
Cc1ccc(N2CC(C(=O)NCc3nnnn3-c3ccc(C)c(C)c3)CC2=O)cc1C (stereo not given)
Cc1ccc(-c2nnc(Nc3ccc(S(N)(=O)=O)cc3)c3ccccc23)cc1S(=O)(=O)N1CCOCC1
CCc1ccccc1NC(=O)C(=O)NCC(c1cccnc1)N1CCc2ccccc21 (stereo not given)
